# Assay results from the supplement of paper PMC8728848.
# Some of the results follow.
# B1: HBHA-Rv (Mycobacterium tuberculosum), P0A5P6 (protein)
# chain: MAENSNIDDIKAPLLAALGAADLALATVNELITNLRERAEETRTDTRSRVEESRARLTKLQEDLPEQLTELREKFTAEELRKAAEGYLEAATSRYNELVERGEAALERLRSQQSFEEVSARAEGYVDQAVELTQEALGTVASQTRAVGERAAKLVGIELPKKAAPAKKAAPAKKAAPAKKAAAKKAPAKKAAAKKVTQK
# Key:
# Assay in all cases: glycan array binding signal (z-score within array); higher = stronger binding
# Conditions in all cases: glycan notation: IUPAC condensed, linker removed
# [1] = target: Neu5Ac(a2-6)GlcNAc(b1-4)GlcNAc(b1-4)GlcNAc
# Outline: (§1)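 The binding signal is a Z-score computed within each array and averaged over linkers. Arrays of the same protein sequence at different concentrations or buffers were also averaged together. Data originate from 3228 arrays in the Consortium for Functional Glycomics database, kept only where the protein sequence was available.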
# Neu5Ac(a2-8)Neu5Ac = target: Neu5Ac(a2-8)Neu5Ac
# Outline: as §1
# [2] = target: Neu5Ac(a2-8)Neu5Ac(a2-3)Gal(b1-3)GalNAc(b1-4)[Neu5Ac(a2-3)]Gal(b1-4)Glc
# Outline: as §1
# [3] = target: Neu5Ac(a2-8)Neu5Ac(a2-3)Gal(b1-3)GalNAc(b1-4)[Neu5Ac(a2-8)Neu5Ac(a2-3)]Gal(b1-4)Glc
# Outline: as §1
# [4] = target: Neu5Ac(a2-8)Neu5Ac(a2-3)Gal(b1-4)Glc
# Outline: as §1
# [5] = target: Neu5Ac(a2-8)Neu5Ac(a2-3)Gal(b1-4)GlcNAc
# Outline: as §1
# [6] = target: Neu5Ac(a2-8)Neu5Ac(a2-3)[Gal(b1-3)GalNAc(b1-4)]Gal(b1-4)Glc
# Outline: as §1
# [7] = target: Neu5Ac(a2-8)Neu5Ac(a2-3)[GalNAc(b1-4)]Gal(b1-4)Glc
# Outline: as §1
# [8] = target: Neu5Ac(a2-8)Neu5Ac(a2-8)Neu5Ac
# Outline: as §1
# [9] = target: Neu5Ac(a2-8)Neu5Ac(a2-8)Neu5Ac(a2-3)Gal(b1-4)Glc
# Outline: as §1
# [10] = target: Neu5Ac(a2-8)Neu5Ac(a2-8)Neu5Ac(a2-3)[Gal(b1-3)GalNAc(b1-4)]Gal(b1-4)Glc
# Outline: as §1
# [11] = target: Neu5Ac(a2-8)Neu5Ac(a2-8)Neu5Ac(a2-3)[GalNAc(b1-4)]Gal(b1-4)Glc
# Outline: as §1
# [12] = target: Neu5Ac(a2-8)Neu5Ac(a2-8)Neu5Ac(a2-8)Neu5Ac(a2-3)[GalNAc(b1-4)]Gal(b1-4)Glc
# Outline: as §1
# [13] = target: Neu5Ac(a2-8)Neu5Gc(a2-3)Gal(b1-4)GlcNAc
# Outline: as §1
# [14] = target: Neu5Ac(b2-6)Gal(b1-4)GlcNAc
# Outline: as §1
# Neu5Ac(b2-6)GalNAc = target: Neu5Ac(b2-6)GalNAc
# Outline: as §1
# [15] = target: Neu5Ac9Ac(a2-3)Gal(b1-3)GlcNAc
# Outline: as §1
# [16] = target: Neu5Ac9Ac(a2-3)Gal(b1-4)GlcNAc
# Outline: as §1
# [17] = target: Neu5Ac9Ac(a2-6)Gal(b1-4)GlcNAc
# Outline: as §1
# [18] = target: Neu5Gc(a2-3)Gal(b1-3)GlcNAc
# Outline: as §1
# [19] = target: Neu5Gc(a2-3)Gal(b1-3)[Fuc(a1-4)]GlcNAc
# Outline: as §1
# Neu5Gc(a2-3)Gal(b1-4)Glc = target: Neu5Gc(a2-3)Gal(b1-4)Glc
# Outline: as §1
# [20] = target: Neu5Gc(a2-3)Gal(b1-4)GlcNAc
# Outline: as §1
# [21] = target: Neu5Gc(a2-3)Gal(b1-4)GlcNAc(b1-3)Gal(b1-4)GlcNAc(b1-2)Man(a1-3)[Neu5Gc(a2-3)Gal(b1-4)GlcNAc(b1-3)Gal(b1-4)GlcNAc(b1-2)Man(a1-6)]Man(b1-4)GlcNAc(b1-4)GlcNAc
# Outline: as §1
# [22] = target: Neu5Gc(a2-3)Gal(b1-4)[Fuc(a1-3)]GlcNAc
# Outline: as §1
# [23] = target: Neu5Gc(a2-6)Gal(b1-4)GlcNAc
# Outline: as §1
# Neu5Gc(a2-6)GalNAc = target: Neu5Gc(a2-6)GalNAc
# Outline: as §1
# [24] = target: Neu5Gc(a2-8)Neu5Ac(a2-3)Gal(b1-4)GlcNAc
# Outline: as §1
# [25] = target: Neu5Gc(a2-8)Neu5Gc(a2-3)Gal(b1-4)GlcNAc
# Outline: as §1
# [26] = target: Neu5Gc(a2-8)Neu5Gc(a2-3)Gal(b1-4)GlcNAc(b1-3)Gal(b1-4)GlcNAc
# Outline: as §1
# [27] = target: Neu5Gc(a2-8)Neu5Gc(a2-6)Gal(b1-4)GlcNAc
# Outline: as §1
# [28] = target: Neu5Gc(b2-6)Gal(b1-4)GlcNAc
# Outline: as §1
binder,measurement,setting,value
B1,glycan array binding signal (z-score),[1],-0.361
same,glycan array binding signal (z-score),Neu5Ac(a2-8)Neu5Ac,-0.261
same,glycan array binding signal (z-score),[2],-0.37
same,glycan array binding signal (z-score),[3],0.674
same,glycan array binding signal (z-score),[4],0.185
same,glycan array binding signal (z-score),[5],-0.326
same,glycan array binding signal (z-score),[6],1.55
same,glycan array binding signal (z-score),[7],-0.209
same,glycan array binding signal (z-score),[8],-0.348
same,glycan array binding signal (z-score),[9],-0.266
same,glycan array binding signal (z-score),[10],-0.42
same,glycan array binding signal (z-score),[11],-0.152
same,glycan array binding signal (z-score),[12],-0.135
same,glycan array binding signal (z-score),[13],-0.388
same,glycan array binding signal (z-score),[14],-0.155
same,glycan array binding signal (z-score),Neu5Ac(b2-6)GalNAc,0.298
same,glycan array binding signal (z-score),[15],-0.212
same,glycan array binding signal (z-score),[16],-0.363
same,glycan array binding signal (z-score),[17],0.472
same,glycan array binding signal (z-score),[18],-0.401
same,glycan array binding signal (z-score),[19],-0.33
same,glycan array binding signal (z-score),Neu5Gc(a2-3)Gal(b1-4)Glc,-0.346
same,glycan array binding signal (z-score),[20],-0.348
same,glycan array binding signal (z-score),[21],-0.458
same,glycan array binding signal (z-score),[22],-0.009
same,glycan array binding signal (z-score),[23],0
same,glycan array binding signal (z-score),Neu5Gc(a2-6)GalNAc,-0.287
same,glycan array binding signal (z-score),[24],-0.267
same,glycan array binding signal (z-score),[25],-0.304
same,glycan array binding signal (z-score),[26],-0.429
same,glycan array binding signal (z-score),[27],-0.171
same,glycan array binding signal (z-score),[28],-0.434
